Values joined by “and” are separate entries in the source; they are usually repeats but may differ in a detail not shown here. Identical values can stand only once. The list shows a part of the results. The main result of the screen is listed elsewhere. These columns were measured beside it and carry no call.

What all share (experiment): Primary Screen for Target Class Profiling of Small Molecule Inhibitors of Methyltransferases
In experiment [1] the target is Glycine N-methyltransferase (Homo sapiens) (UniProt Q14749). Conditions: purified enzyme, MTase-Glo SAH luminescence; measured here: GNMT inhibition; at 40 µM; stronger effect = lower value. An outline of the steps:
(§1)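 Each enzyme was assayed with SAM and its substrate. SAH formation detected by MTase-Glo luminescence; single-point 40 uM screen[…].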

The target in experiment [2] is Guanidinoacetate N-methyltransferase (Homo sapiens) (UniProt Q14353). The settings on record: purified enzyme, MTase-Glo SAH luminescence; measured here: GAMT inhibition; at 40 µM; stronger effect = lower value. An outline of the steps:
as §1

The target of experiment [3] is Histamine N-methyltransferase (Homo sapiens) (UniProt P50135). The settings on record: purified enzyme, MTase-Glo SAH luminescence; measured here: HNMT inhibition; at 40 µM; stronger effect = lower value. An outline of the steps:
as §1

For experiment [4], the target named is Nicotinamide N-methyltransferase (Homo sapiens) (UniProt P40261). Conditions: purified enzyme, MTase-Glo SAH luminescence; measured here: NNMT inhibition; at 40 µM; stronger effect = lower value. An outline of the steps:
as §1

Experiment [5] addresses Phenylethanolamine N-methyltransferase (Homo sapiens) (UniProt P11086). The settings on record: purified enzyme, MTase-Glo SAH luminescence; measured here: PNMT inhibition; at 40 µM; stronger effect = lower value. An outline of the steps:
as §1
On the % scale 0 is the no-effect control and ±100 the full control effect.

As for `Cc1cccc(NC(=O)N2CCn3cccc3C2C(C)C)c1C` (stereo not given), the activity change, negative = inhibition in experiment [1] amounted to 15.9%; in experiment [2], 0%; in experiment [3] it was 8.04%; in experiment [4], 8.43%; in experiment [5], 8.52%.
Taken in the same sequence, the figures for `CCOc1ccc2cc(-c3nnc(Nc4ccccc4)s3)c(=O)oc2c1` were 3.69%, -1.25%, -0.456%, 5.89% and -4.04%.
Taken in the same sequence, the figures for `CC(=O)OCC(Cc1ccccc1)NC(=O)C(Cc1ccccc1)NC(=O)c1ccccc1` (stereo not given) were 4.14%, -3.25%, 5.94%, -10.6% and 0.944%.
The matching figures for `COc1ccc(-c2cnc(Nc3ccc(CN4CCN(C)CC4)cc3)c3c2CCO3)cn1`: -15%, -7.9%, -39.2%, -13.5% and -8.49%.
As for `O=[S+]1([O-])NCC2(CCN(Cc3ccccn3)CC2)Nc2ccccc21`, the activity change, negative = inhibition in experiment [1] is -0.697%; in experiment [2], 0.073%; in experiment [3] it was 1.33%; in experiment [4] it was -1.33%; in experiment [5], 2.34%.
Taken in the same sequence, the figures for `CC1CCC(NC(=O)C2(C)Cn3c(cc4occc43)C(=O)N2CCCN2CCOCC2)CC1` (stereo not given) were 4.43%, 1.09%, 7.76%, 7.35% and 3.86%.
Taken in the same sequence, the figures for `CCCn1c(=O)c2ccc(C(=O)NCC(C)C)cc2n2c(=O)n(CC(=O)c3ccc(OCC)cc3)nc12` were 6.7%, 2.77%, 11.1%, 2.57% and 8.18%.
The matching figures for `CCCn1c(=O)c2cc(F)ccc2n2c(SCC(=O)Nc3ccccc3F)nnc12`: -3.83%, 2.81%, 4.15%, -2.54% and -0.77%.
`Cc1cnc(-c2ccncc2)n1CCNC(=O)NCc1ccc(F)cc1`: the activity change, negative = inhibition was 2.53% in experiment [1]; 0.278% in experiment [2]; 1.9% in experiment [3]; -0.206% in experiment [4]; 0.71% in experiment [5].
Consider `COc1ccc(C(=O)N2CCC(C3CCN(S(C)(=O)=O)CC3)C2)cn1` (stereo not given), for which the activity change, negative = inhibition in experiment [1] was -6.92%; in experiment [2], -6.22%; in experiment [3], -5.35%; in experiment [4] it was -11.5%; in experiment [5], -8.65%.
Take `CN1CCN([C@H]2[C@@H]3OC[C@@H](O3)[C@@H](NC(=O)Nc3ccccc3)[C@@H]2O)CC1`: the activity change, negative = inhibition in experiment [1] is -2.69%; in experiment [2] it was -3.39%; in experiment [3] it was -0.023%; in experiment [4] it was -8.25%; in experiment [5], -5.36%.
The matching figures for `CCCn1c(=O)c2ccccc2n2c(SCC(=O)Nc3cc(OC)cc(OC)c3)nnc12`: 8.23%, 0.058%, 9.17%, 7.11% and 4.5%.
The matching figures for `CCCn1c(=O)c2ccc(C(=O)NC(C)C)cc2n2c(SCc3ccc(C)cc3)nnc12`: -2.98%, -1.36%, -2.79%, -17.1% and -4.3%.
Taken in the same sequence, the figures for `C[C@@H]1O[C@@H](O[C@H]2[C@H](O)[C@@H](O)[C@H](OC[C@H]3O[C@@H](OC(=O)[C@]45CCC(C)(C)C[C@H]4C4=CCC6[C@@]7(C)C[C@H](O)[C@H](O[C@@H]8O[C@H](CO)[C@@H](O)[C@H](O)[C@H]8O)[C@@](C)(C(=O)O)C7CC[C@@]6(C)[C@]4(C)CC5)[C@H](O[C@@H]4O[C@H](CO)[C@@H](O)[C@H](O)[C@H]4O)[C@@H](O)[C@@H]3O)O[C@@H]2CO)[C@H](O)[C@H](O)[C@H]1O` (stereo not given in full) were 3.86%, 0.506%, 11.2%, -9.66% and 5.9%.
Take `CCC[C@@H]1C[C@@H](C(=O)N[C@@H]([C@H]2O[C@H](SC)[C@H](OP(=O)(O)O)[C@@H](O)[C@H]2O)[C@H](C)Cl)N(C)C1`: the activity change, negative = inhibition is 5.03% in experiment [1]; 3.42% in experiment [2]; 10.9% in experiment [3]; -6.64% in experiment [4]; 3.61% in experiment [5].
Taken in the same sequence, the figures for `CC(O)c1cc(C(=O)N[C@@H](C)Cn2ccc(-c3ccc(C#N)c(Cl)c3)n2)n[nH]1` (stereo not given in full) were -8.52%, -6.08%, 7.82%, -25.3% and -5.25%.
The matching figures for `O=C(Nc1ccc(F)cc1F)N1Cc2c(sc3c2CCCC3)-n2cccc2C1c1ccccc1` (stereo not given): -1.01%, 4.98%, -1.81%, 0.16% and 2.47%.
Taken in the same sequence, the figures for `COc1ccc(OC)c(CCNC(=O)CCc2nnc3n(Cc4ccc(Cl)cc4)c(=O)c4ccccc4n23)c1` were -4.11%, -7.84%, 4.68%, -19.8% and -4.79%.
On to `COC(=O)C1=CO[C@@H](O)[C@@H]2C(CO)=CC[C@H]12`, for which the activity change, negative = inhibition in experiment [1] is -2.55% and 3.5%; in experiment [2], -6.95% and 11.3%; in experiment [3], 2.42% and 1.91%; in experiment [4] it was -15.3% and -2.83%; in experiment [5] it was -3.91% and 7.65%.
For the molecule `Cc1cccc(S(=O)(=O)N2[C@@H]3CC[C@H]2CC(NC(=O)c2ccncc2)C3)c1` (stereo not given in full), the activity change, negative = inhibition in experiment [1] is -3.04%; in experiment [2], -2.32%; in experiment [3], -0.761%; in experiment [4], -2.71%; in experiment [5] it was -3.56%.
The matching figures for `CC(=O)Nc1ccn(C2COC(COC(=O)c3ccccc3)O2)c(=O)n1` (stereo not given): 6.25%, 4.65%, 9.4%, -5.81% and 5.42%.
The matching figures for `Cc1nc(C(=O)NCC(=O)O)c(O)c2ccc(Oc3ccccc3)cc12`: -8.81%, -10.6%, -4.84%, -19.4% and -14.3%.
The matching figures for `COc1cccc(CN2C(=O)c3cc4ccccc4n3CC2(C)C(=O)NC2CCCCC2)c1` (stereo not given): 0.587%, 2.22%, 7.6%, 3.74% and 1.93%.
Turning to `COc1cccc(CN2C(=O)c3ccc(-c4ccco4)n3CC2(C)C(=O)NCCC(C)C)c1` (stereo not given), the activity change, negative = inhibition was -14.4% in experiment [1]; 3.1% in experiment [2]; -2.13% in experiment [3]; -17.9% in experiment [4]; -3.2% in experiment [5].
Taken in the same sequence, the figures for `O=C(NCCCNCCCNC(=O)c1cccnc1)c1cccnc1` were 1.28%, 0%, 5.45%, 22.2% and 0.384%.
Taken in the same sequence, the figures for `C[C@@H]1O[C@@H](O[C@H]2[C@H](O[C@H]3CC[C@@]4(C)C(CC[C@]5(C)C4CC=C4[C@@H]6CC(C)(C)CC[C@]6(C(=O)O[C@@H]6OC[C@H](O)[C@H](O)[C@H]6O[C@@H]6O[C@@H](C)[C@H](O[C@@H]7O[C@H](CO)[C@@H](O)[C@H](O)[C@H]7O)[C@H](O)[C@H]6O)[C@H](O)C[C@]45C)C3(C)C)O[C@H](CO)[C@@H](O[C@@H]3OC[C@@H](O)[C@H](O)[C@H]3O)[C@@H]2O)[C@H](O)[C@H](O)[C@H]1O` (stereo not given in full) were 3.68%, 2.39%, 8.92%, -7.08% and 2.64%.
Taken in the same sequence, the figures for `CCOC(=O)C1=C(N)Oc2ccc(Cl)cc2C1C(C#N)C(=O)OCC` (stereo not given) were -3.65%, -2.09%, 1.12%, -16.8% and -5.46%.

(Values after PubChem BioAssay AID1745853 (National Center for Advancing Translational Sciences (NCATS), 2022).)
